Source: IntAct's records for PubMed 29990310

B1: Myeloid differentiation primary response protein MyD88 (Homo sapiens), Q99836 (parent)
chain: MAAGGPGAGSAAPVSSTSSLPLAALNMRVRRRLSLFLNVRTQVAADWTALAEEMDFEYLEIRQLETQADPTGRLLDAWQGRPGASVGRLLELLTKLGRDDVLLELGPSIEEDCQKYILKQQQEEAEKPLQVAAVDSSVPRTAELAGITTLDDPLGHMPERFDAFICYCPSDIQFVQEMIRQLEQTNYRLKLCVSDRDVLPGTCVWSIASELIEKRCRRMVVVVSDDYLQSKECDFQTKFALSLSPGAHQKRLIPIKYKAMKKEFPSILRFITVCDYTNPCTKSWFWTRLAKALSLP

Variants of: B1
Details: with tlr2_human TLR2, O60603

effect of a mutation on the interaction | Variant
decreasing interaction strength | A247W;K250D
